# The campaign covered roughly 310,000 compounds. About 14,000 (4.5%) showed an effect of 50% or more. The effect is printed as a negative number. The list shows a part of the results.
# Target: human ether-à-go-go-related gene (hERG) potassium channel (human, UniProt Q12809)
# Test: primary screen, population patch clamp on CHO cells stably expressing hERG
# 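Also: peak tail current of the secondary pulse compared with the same well before compound.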
# Chain of human ether-à-go-go-related gene (hERG) potassium channel (Q12809 whole entry, looked up): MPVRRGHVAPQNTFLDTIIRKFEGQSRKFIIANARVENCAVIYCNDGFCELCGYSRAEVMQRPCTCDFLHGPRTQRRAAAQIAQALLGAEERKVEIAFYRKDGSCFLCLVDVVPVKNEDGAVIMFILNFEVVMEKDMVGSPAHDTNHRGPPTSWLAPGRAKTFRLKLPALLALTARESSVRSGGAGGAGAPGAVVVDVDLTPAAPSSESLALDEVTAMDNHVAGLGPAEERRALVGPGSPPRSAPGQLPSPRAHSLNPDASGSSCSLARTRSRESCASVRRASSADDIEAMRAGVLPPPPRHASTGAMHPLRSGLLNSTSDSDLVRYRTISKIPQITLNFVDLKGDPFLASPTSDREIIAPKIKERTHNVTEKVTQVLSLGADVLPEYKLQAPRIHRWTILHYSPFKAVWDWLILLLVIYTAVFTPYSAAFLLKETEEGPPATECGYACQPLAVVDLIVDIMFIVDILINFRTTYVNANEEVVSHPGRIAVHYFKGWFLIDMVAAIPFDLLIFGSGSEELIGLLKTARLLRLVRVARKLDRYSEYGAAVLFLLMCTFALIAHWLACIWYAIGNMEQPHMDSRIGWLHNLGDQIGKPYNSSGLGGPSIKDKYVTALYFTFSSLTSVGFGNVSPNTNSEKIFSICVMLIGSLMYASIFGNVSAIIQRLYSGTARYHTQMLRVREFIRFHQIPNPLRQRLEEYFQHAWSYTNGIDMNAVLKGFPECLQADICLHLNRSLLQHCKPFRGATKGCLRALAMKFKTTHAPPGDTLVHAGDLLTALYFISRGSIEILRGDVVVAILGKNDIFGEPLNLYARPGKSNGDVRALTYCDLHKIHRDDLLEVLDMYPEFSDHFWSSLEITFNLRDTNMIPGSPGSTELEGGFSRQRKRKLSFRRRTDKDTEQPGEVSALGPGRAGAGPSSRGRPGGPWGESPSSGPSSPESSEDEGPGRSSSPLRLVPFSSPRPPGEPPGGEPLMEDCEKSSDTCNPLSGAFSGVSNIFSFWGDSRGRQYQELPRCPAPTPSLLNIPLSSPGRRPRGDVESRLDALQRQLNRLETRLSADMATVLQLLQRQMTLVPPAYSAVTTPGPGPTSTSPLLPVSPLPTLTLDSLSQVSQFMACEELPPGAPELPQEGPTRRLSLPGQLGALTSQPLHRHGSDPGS
row,SMILES,"hERG current change (%, negative = inhibition) at 10uM"
1,CC(C)(C)N1CC(OC(N)=O)C1,21%
2,O=C(c1cccc(N2C(=O)c3ccccc3C2=O)c1)N1CCCCCC1,2.21%
3,Cc1ccc(-c2nnn(CC(=O)N(Cc3cccs3)C(C(=O)NC3CCCC3)c3ccco3)n2)o1 (stereo not shown),-12%
4,CCn1cnc2sc(C(=O)N(Cc3ccc(N(C)C)cc3)Cc3ccco3)c(C)c2c1=O,-22.2%
5,NC1=NC(=O)C(CC(=O)c2ccc(Cl)cc2)S1 (stereo not shown),1.23%
6,CCOC(=O)C1=C(C)N=c2s/c(=C3/C(=O)Nc4ccccc43)c(=O)n2C1c1ccc(C)cc1 (stereo not shown),14.7%
7,COc1ccc(C2CC(c3ccccc3)=NN2C(=O)COC(=O)CNC(=O)c2ccccc2)cc1 (stereo not shown),-26.3%
8,N/C(=N\OC(=O)CC1CCCCC1)c1ccncc1,2.62%
9,O=C1NC(=S)S/C1=C/c1ccc(Oc2cnccn2)cc1,20%
10,NS(=O)(=O)c1ccc(CCNC2CC(=O)N(Cc3ccccc3)C2=O)cc1 (stereo not shown),-17.3%
11,O=C(COc1ccc(Cl)cc1Cl)Nc1ccccc1F,9.98%
12,CCOc1ccc(Oc2nc(NCC(C)C)nc(N(C)C)n2)nn1,4.63%
13,O=C(NCC(=O)N(c1cccc(F)c1)C(C(=O)NCC1CCCO1)c1ccccc1)c1ccco1 (stereo not shown),6.26%
14,COc1ccc(N2CCN(C(=O)CSc3nnc(-c4cc5ccccc5cc4O)n3C)CC2)cc1,-12.4%
15,O=C(NNC(=O)C1CC(c2cccnc2)=NO1)Nc1ccccc1F (stereo not shown),-0.452%
16,CCN(Cc1ccc2c(c1)OCO2)C(=O)CSc1nc(C)nc2sc(C)c(C)c12,-5.76%
17,CN(C)/C=C1\C(=O)ON=C1c1ccccc1,7.29%
18,O=C(Nc1ncccc1O)c1ccc(Cl)c(S(=O)(=O)N2CCCCCC2)c1,-61%
19,COc1ccc(OC)c(N/C(N)=N/c2nc(C)cc(C)n2)c1,-50.1%
20,O=C(CSc1nc(-c2cccs2)nc2ccccc12)NC1CCS(=O)(=O)C1 (stereo not shown),6.45%
21,Cc1cc(NC(=O)Nc2cccs2)no1,20.7%
22,CC(=O)Nc1cc2nc(C)n(Cc3ccc([N+](=O)[O-])cc3)c2nc1C,5.48%
23,CCCn1c(C(C)Nc2nc(-c3cc(Cl)c(N)c(Cl)c3)cs2)nc2cc(Cl)c(N3CCCCC3)cc21 (stereo not shown),-0.0189%
24,Cc1ccc(S(=O)(=O)c2nc(-c3ccccc3)oc2NCCN2CCOCC2)cc1,3.12%
25,Cc1nnc(SCc2cccc(Oc3ccccc3)c2)n1N,-10.5%
26,O=C(NNc1c(Cl)cc(Cl)cc1Cl)c1n[nH]c(=O)c2ccccc12,0.99%
27,O=C(NNC(=O)c1cc(-c2ccccc2)nc2ccccc12)c1csc(N2CCOCC2)n1,0.815%
28,CCOc1ccc(C2N(c3cc(C)on3)C(=O)C3CCCN32)cc1OC (stereo not shown),12.5%

row,SMILES,"hERG current change (%, negative = inhibition) at 10uM"
1,O=C1C(=O)N(c2ccccn2)C(c2ccc(F)cc2)/C1=C(/O)c1ccc(Br)cc1 (stereo not shown),2.03%
2,COc1cccc(NC(=O)CN(C)S(=O)(=O)c2ccc(C)cc2)c1,-7.36%
3,CCc1noc(C)c1C(=O)Nc1ccccc1N1CCOCC1,-14.9%
4,COc1ccc(NC(=O)CCS(=O)(=O)c2ccc3c(c2)CCCN3C(C)=O)cc1Cl,-7.51%
5,CCN(CC)CC#Cc1ccc(C)cc1.Cl,7.47%
6,Cc1ccc(S(=O)(=O)N2CCOCC2)cc1C(=O)NCC1CCCO1 (stereo not shown),5.88%
7,COc1ccc(OCc2cc(C(=O)N3CCCC3)no2)c2ccccc12,-27.9%
8,CN1CCN(NC(=O)c2cc(-c3ccccn3)nc3ccccc23)CC1,14%
9,CSCc1ccc(C(=O)NCC(c2cccs2)N2CCOCC2)cc1 (stereo not shown),-3.08%
10,COc1ccc(CC(=O)NCc2ccc3c(c2)cc(C)n3C)cc1,18.6%
11,COc1ccc(C2C=C(c3ccc(C)c(C)c3)Nc3ncnn32)c(OC)c1OC (stereo not shown),3.18%
12,C/C(=N\Nc1nc2ccccc2[nH]1)c1ccc(Cl)s1,-4.3%
13,Cc1cc(CN(C)Cc2ccc(OCC(O)CN(C)Cc3ccccc3)cc2)on1 (stereo not shown),-4.84%
14,Cn1c(N2CCCC2)nc2c1c(=O)[nH]c(=O)n2C,10.8%
15,COc1ccc(NC(=O)c2ccc(S(=O)(=O)N(C)C)cc2)cc1,4.19%
16,CC1CCN(S(=O)(=O)c2ccc(C(=O)Nc3ccccc3-c3nc4ccccc4[nH]3)cc2)CC1,9.5%
17,O=C1CSC(c2ccc(Cl)cc2)N1c1cccnc1 (stereo not shown),10.6%
18,CCOc1cc(C2C(C(=O)c3ccco3)=C(O)C(=O)N2Cc2ccccc2)ccc1O (stereo not shown),25.8%
19,CC(=O)/C(N=Nc1ccc2c(c1)OCCO2)=C(\C)O,18.1%
20,COc1ccc(-n2nc(C(=O)NCC(=O)N3CCN(c4ccc(F)cc4)CC3)c3ccccc3c2=O)c(OC)c1,-42.8%
21,COc1cccc(NC(=O)c2ccccc2-c2nc(-c3cccc(C)c3)no2)c1,0.852%
22,CCCn1nnc(NC(=O)c2ccc([N+](=O)[O-])cc2Cl)n1,-7.86%
23,CCc1ccc2nc(/N=C(\N)NC(=O)c3ccccc3)nc(C)c2c1,11.8%
24,Cc1ncc(CN2CCN(CCC(C)C)C(CCO)C2)s1 (stereo not shown),-20.1%
25,O=C(Nc1ccc(Oc2cccc3ccccc23)cc1)c1ccco1,6.21%
26,CCN(C(=O)COC(=O)CSc1cc(C)c2ccccc2n1)c1ccccc1,-6.49%
27,Cc1nn(C)c(C)c1NS(=O)(=O)c1ccc(N2CCCC2=O)cc1,21.5%

# From article PMC4336329 (PLoS ONE, 2015)
